# Results as given in PubChem BioAssay AID463173 (ICCB-Longwood Screening Facility, Harvard Medical School, 2010).
# Hit rate of the full screen: of about 52,000 compounds, about 4,300 (8.3%) were called active. No stated cut-off is given here; in the data, active means survival mostly below about 52% (no sharp cut-off); inactive means mostly above about 56%. The list shows a part of the results.
# System: DeltatarO mutant
# Test: S. aureus survival, RN4220 and DeltatarO strains – OD600, teichoic acid synthesis inhibitors, primary screen (AID 463173)
# Conditions: S. aureus RN4220 wild type/DeltatarO growth, OD600, 18 h, stronger effect = lower value, screened at 18.75 µg/mL (by protocol)
row,Structure (SMILES),survival
1,O=C(Nc1cccc(Cl)c1)c1ccc2c(c1)CCN2S(=O)(=O)c1ccccc1,active: 41%
2,COc1ccc(-c2noc(-c3cccnc3N3CCN(c4ccc(OC)cc4)CC3)n2)cc1,inactive: 51%
3,O=C(COCc1cc(-c2cccs2)on1)N1CCN(c2cccc(Cl)c2)CC1,active: 37%
4,Fc1cccc(-c2nnn3c2nc(NCCc2ccccc2)c2ccccc23)c1,inactive: 115%
5,O=C(CCn1c(=O)c2cccn2c2cccnc21)N1CCN(c2ccccc2F)CC1,inactive: 75%
6,COc1cc(C)cc2oc(=O)c(CC(=O)NCCc3ccc(Cl)cc3)c(C)c12,inactive: 100%
7,COc1ccc(-n2c(C)nc(=O)c(-c3ccccc3)c2C)cc1,inactive: 81%
8,CCN(C(=O)Nc1cn(CC(C)C)c(=O)c2ccccc12)c1cc(C)ccc1C,inactive: 66%
9,Cc1ccc(CNC(=O)CCn2cnc3ccccc3c2=O)cc1,inactive: 73%
10,Cc1ccc2nc(Nc3ccc(C)c(F)c3)c3nncn3c2c1,active: 38%
11,Cc1c(Cl)cccc1NC(=O)C1CCN(c2ncnc3c2nc2n3CCCCC2)CC1,inactive: 109%
12,N#C/C(=C\c1cn(Cc2ccccc2C#N)c2ccccc12)C(=O)NCc1cccs1,inactive: 89%
13,COc1ccccc1CN1C(=O)CN(C2CCCCCC2)C(=O)C1c1ccc(F)cc1 (stereo not given),inactive: 78%
14,Cc1ccnc(NC(=O)CCCOc2ccc(Cl)cc2Cl)c1,inactive: 81%
15,CCn1nc(C)c(CCN(C)C(=O)Nc2cc(OC)c(OC)c(OC)c2)c1C,inactive: 89%
16,Cc1ccc(N2CC(NC(=O)c3ccc(S(=O)(=O)N4CCOCC4)cc3)CC2=O)cc1 (stereo not given),inactive: 60%
17,O=c1c2ccccc2nc2c3ccccc3c(N3CCCCCC3)nn12,inactive: 103%
18,COc1ccc(C)cc1NC(=O)C1CCN(S(=O)(=O)c2ccc(OC)c(OC)c2)CC1,inactive: 92%
19,C=Cn1c(C(=O)O)ccc1-c1ccc(OC)cc1,inactive: 110%
20,Cc1ccc(CCNS(=O)(=O)c2ccc3c(c2)CC(C)N3C(=O)C2CCC2)cc1 (stereo not given),inactive: 72%
21,Cc1oc(-c2ccccc2Cl)nc1Cn1c(SCc2cccc(F)c2)nc2cccnc21,inactive: 75%
22,Cc1nc(-c2ccccc2)sc1-c1ccc(SCC(=O)NCc2ccc(Cl)cc2)nn1,inactive: 52%
23,CC(=O)c1cccc(NC(=O)CC(c2ccc(C)cc2)N2Cc3ccccc3C2=O)c1 (stereo not given),inactive: 78%

row,Structure (SMILES),survival
1,CC(C)CNC(=O)N1[C@H](c2cccs2)[C@@H](C)C(=O)[C@@H](C)[C@@H]1c1cccs1,inactive: 54%
2,COc1ccc(-c2cc(C(F)(F)F)n3nc(C(=O)NCCN4CCOCC4)c(Br)c3n2)cc1,inactive: 107%
3,Cc1cccc(OCC(=O)Nc2ccc(-c3nc4ccccc4o3)cc2)c1C,active: 52%
4,CCn1nnnc1SCC(=O)c1ccc(C)cc1C,inactive: 84%
5,COc1ccc(C)cc1NS(=O)(=O)c1c(C(=O)N2CCCCCC2)c(C)n(C)c1C,inactive: 82%
6,CC(C)OCCCNC(=O)Cn1ccc2cc(S(=O)(=O)N3CCCCCC3)ccc21,inactive: 122%
7,CC(C)Nc1nc(NC(C)C)nc(C(N)=O)n1,inactive: 110%
8,CC(=O)NC1(c2ccccc2)CCN(Cc2nnnn2C(C)(C)C)CC1,inactive: 91%
9,CCN(CC)C(=O)CSc1nc2ccccc2cc1C,inactive: 87%
10,Cc1cc(C)n(-c2nc3ccccc3nc2Nc2ccc(Cl)c(C(=O)OC(C)C)c2)n1,inactive: 99%
11,CCc1cccc2c(C#N)cn(CC(=O)N(CC)CC)c12,inactive: 88%
12,COCCCNC(=O)c1ccc(-n2c(-c3ccccc3)cc3c2CCCC3)cc1,inactive: 70%
13,O=C(OCc1cc(=O)n2nc(C3CCCCC3)sc2n1)c1ccccc1Cl,inactive: 83%
14,COc1cccc(-c2nnc(SCC(=O)N3CCC(C)CC3)o2)c1,inactive: 54%
15,CCN1CC=C2C(C#N)=C(N)C(C#N)(C#N)C(C)C2C1 (stereo not given),inactive: 80%
16,Cc1cc(C)cc(NS(=O)(=O)c2ccc3[nH]cc(C(=O)NC4CCCCC4)c(=O)c3c2)c1,active: 17%
17,CCn1cc(S(=O)(=O)c2ccccc2)c(=O)c2cc(F)c(N3CCCC3)cc21,inactive: 107%
18,Cc1ccc(Cl)cc1NC(=O)Cn1c(=O)n(Cc2ccccc2)c(=O)c2oc3ccccc3c21,inactive: 81%
19,Cc1ccc(CCNC(=O)CCCn2c(=O)c3ccccc3n(Cc3ccccc3C#N)c2=O)cc1,inactive: 90%
20,CCn1cc2c(n1)-c1c(oc(C(=O)Nc3cccc(C)c3C)c1C)CC2,inactive: 95%
21,Cc1ccc(CNC(=O)CCc2c(C)nc3nc(C)nn3c2C)cc1,inactive: 103%
22,N#Cc1c(C(F)(F)F)cc(-c2cccs2)nc1SCC(=O)Nc1ccccc1F,inactive: 145%
23,CCc1ccc(O)c(C(=O)c2cnc3cc(-c4ccc(C)cc4)nn3c2)c1,inactive: 89%

row,Structure (SMILES),survival
1,Cc1cc(C)cc(NC(=O)CSc2oc(-c3ccccc3)nc2S(=O)(=O)c2ccccc2)c1,inactive: 143%
2,O=C(c1ccc2c(c1)N(Cc1ccccc1F)C(=O)c1ccccc1S2(=O)=O)N1CCN(c2ccccc2F)CC1,inactive: 94%
3,CNS(=O)(=O)c1ccccc1C(=O)N/N=C/c1ccc(OC)c(OC)c1,inactive: 76%
4,CCN(CC)C(=O)c1sc2c(c1C)c(=O)n(CCc1ccccc1)c(=O)n2Cc1ccc(F)cc1Cl,inactive: 89%
5,COc1cc(OC)c(OC)cc1/C=C/c1nc2cc3ccccc3cc2c(=O)n1-c1ccc(F)c(Cl)c1,inactive: 79%
6,O=C(c1cc(-c2ccccc2O)on1)N1CCCCC1,active: 40%
7,CCc1c(C)nc(SCc2nc(-c3ccccc3)no2)[nH]c1=O,inactive: 112%
8,O=S(=O)(c1ccc2c(c1)Cc1ccccc1-2)N1CCOCC1,inactive: 113%
9,O=C(c1ccccc1)c1ccc2nc(-c3ccco3)c(-c3ccco3)nc2c1,inactive: 90%
10,O=C(CSCc1ccc(F)cc1)N1CCN(c2ccc(Cl)cc2)CC1,inactive: 95%
11,Clc1ccc(CN2CCC(CNc3ncnc4onc(-c5ccc(Cl)cc5)c34)CC2)cc1,inactive: 50%
12,COc1ccc(C2=C/C(=C/c3ccco3)C(=O)O2)cc1,inactive: 105%
13,Cc1ccc(/C=C2\SC(=O)NC2=S)o1,active: 33%
14,Cc1ccc(OCC(=O)Nc2cccc(-c3nc4ccccc4o3)c2C)cc1C,active: 55%
15,O=C(c1cc2sccc2n1Cc1ccccc1)N1CCN(Cc2ccc3c(c2)OCO3)CC1,inactive: 86%
16,COc1ccc2cc(-c3nc(Cl)c4c5c(sc4n3)CC(C)CC5)c(=O)oc2c1 (stereo not given),active: 77%
17,O=C(Cn1c(=O)n(-c2cccc(Cl)c2)c(=O)c2sc3ccccc3c21)NC1CCCCC1,inactive: 127%
18,CNC(=O)C1CCC(Cn2c(=O)c3sccc3n(CC(=O)NCc3ccc(OC)cc3)c2=O)CC1 (stereo not given),inactive: 135%
19,COc1ccccc1NC(=O)c1c(NC(=O)COc2ccccc2)sc2c1CCCCC2,inactive: 85%
20,CN(C)CCN1C(=O)C2C3C=CC(C3)C2C1=O (stereo not given),inactive: 112%
21,O=C(Cn1ccn(-c2ccc(F)c(F)c2)c(=O)c1=O)NCCc1ccccc1,inactive: 69%
22,CN(c1ccccc1C(=O)NCc1ccco1)S(C)(=O)=O,inactive: 89%
23,Cc1cc(C)cc(NC(=O)c2cc(S(=O)(=O)N3CCC(C)CC3)cn2C)c1,inactive: 87%

row,Structure (SMILES),survival
1,CC(=O)c1cccc(NC(=O)CCc2c(C)nc3c(c(C)nn3-c3ccccc3)c2C)c1,inactive: 69%
2,CCCCNc1nc(Oc2ccc(=O)n(C)n2)nc(N2CCOCC2)n1,inactive: 81%
3,COc1ccc(NC(=O)c2c(NC(=O)c3ccncc3)sc3c2CCC(C(C)(C)C)C3)cc1 (stereo not given),active: 41%
4,COc1cccc(Cn2c(=O)n(CCc3ccccc3)c(=O)c3c2c2cc(OC)ccc2n3C)c1,inactive: 81%
5,Cc1ccc(Cl)cc1NC(=O)C1CCN(S(=O)(=O)c2cccc3nonc23)CC1,inactive: 106%
6,COc1cc(NC(=O)C(Cc2ccccc2)NS(=O)(=O)c2cccc3nsnc23)cc(OC)c1 (stereo not given),inactive: 72%
7,Cc1cccc(NC(=O)CSc2nc3ccccc3nc2N2CCCCC2)c1C,inactive: 75%
8,COc1cc2[nH]c(=O)n(CCC(=O)N3CCN(c4ccc(Cl)cc4)CC3)c(=O)c2cc1OC,inactive: 81%
9,CCn1nc(-c2ccccc2)c(-c2ccccc2)c(C(=O)Nc2ccccc2C#N)c1=O,inactive: 67%
10,CCS(=O)(=O)N1CCN(Cc2nc3sc4c(c3c(=O)[nH]2)CCC(C(C)(C)C)C4)CC1 (stereo not given),inactive: 104%
11,O=S(=O)(Cc1ccccc1)NCc1ccco1,inactive: 54%
12,Cc1cc(C)c(/C=C/c2onc(C)c2S(=O)(=O)N2CCC(C(=O)NCc3ccccc3Cl)CC2)c(C)c1,inactive: 89%
13,CCN(CC)C(=O)N1CCN(C(=O)N(CC)CC)CC1,inactive: 79%
14,O=C(CCC1N=C2c3ccccc3N=C(SCc3cccc(Cl)c3)N2C1=O)N1CCN(c2ccccc2)CC1 (stereo not given),active: 47%
15,CCOc1ccc(-c2cc3c(=O)n(CC(=O)Nc4cc(F)ccc4C)ccn3n2)cc1,inactive: 81%
16,Cc1cc(C)c2c(=O)cc(C(=O)Nc3c(C)n(C)n(-c4ccccc4)c3=O)oc2c1,inactive: 65%
17,COc1ccc(C(=O)c2c(N)c(-c3nc(-c4ccc(OC)cc4)cs3)c3ccccn23)cc1,inactive: 79%
18,O=C(CN1C(=O)c2cccnc2Oc2ccc(Cl)cc21)NCCc1ccccc1,inactive: 95%
19,Cc1ccccc1OCC(=O)NCCN1CCCC1,inactive: 96%
20,COc1ccc(OCC(O)CN(Cc2ccccc2)Cc2ccccc2)cc1 (stereo not given),inactive: 88%
21,CC(C)(C)C(=O)Cn1c(=O)n(-c2ccccc2)c(=O)c2c3c(sc21)CCC3,inactive: 80%
